Measured values: PubChem BioAssay (NCATS)
Inconclusive means that the source gave no clear call. Such entries were picked first, then a sample of the others. No potency is given beside an inconclusive call; the fits are too rough. Activity calls are given as the source filed them. The call rests on the fitted dose curve; in most records, active means well fitted inhibition curve with a large enough effect; inconclusive means small, poorly fitted or top-dose-only effect; inactive means no such curve, though single readings can be large or run the other way.

Assay: qHTS assay for measurement of the activity of small molecule inhibitors on Zika virus induced Caspase-3 activity in human astrocytoma cells (AID 1224859);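 on activity change, negative = inhibition: plate controls were ZIKV-infected untreated cells for no effect and uninfected cells for full effect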
Conditions: SNB-19 ZIKV-induced caspase-3/7, luminescence, 6 h; series mostly up to 45.7 µM; activity change, negative = inhibition: at the top concentration
Source text: National Center for Advancing Translational Sciences [NCATS]
Johns Hopkins University School of Medicine
Increase in the Caspase-3 activity indicates an activation of apoptosis cell death pathway caused by Zika virus infection in certain types of neuronal cells including human neural progenitor cells (hNPCs), astrocytes, and astrocytoma cell line (SNB-19). This cell-based caspase-3 activity assay measures the increased caspase-3 activity in the astrocytoma cell line (SNB-19) after a 6-hour Zika virus infection with a luminescence readout. A decrease in the luminescence signal in this assay by small molecule treatment indicates an inhibitory effect of that small molecule on the Zika virus induced caspase-3 activity that may correlate with its effect on reduction of Zika virus caused cell death.
The medium for SNB-19 cells is composed of RPMI 1640 (ATCC, Cat.# 30-2001), 10% fetal bovine serum (FBS) (GE healthcare Life Sciences, Cat.# SH30071.03), and 1% Pen/Strep (Gibco, Cat.# 15140-122). A Caspase-Glo 3/7 assay kit (catalog number G8092; Promega, Madison, WI) was used to detect caspase-3 activity induced by Zika virus infection in human cells. The reagent mixture was reconstituted as described in the protocol from the manufacturer. Polystyrene tissue culture treated and PDL coated white plates were obtained from Greiner Bio-One (Monroe, NC). Cells were seeded in 384- or 1536-well assay plates and cultured at 37 C with 5% CO2 for 16 to 20 hours. The typical cell seeding density in the 1536-well plate assay is 250 cells/well in 3ul medium for SNB-19 cells in tissue culture treated plates. Compounds were added to cells and incubated for one hour before addition of ZIKV solution to cells (2 FFU/cell). After incubation at 37 C with 5% CO2 for 6 hours, the reagent mixture of Caspase-Glo 3/7 assay kit was added to each well, followed by incubation at room temperature for 30 minutes. The luminescence intensity of the assay plates was measured using a ViewLux plate reader (PerkinElmer). Data were normalized by using the cell-containing wells without ZIKV as a negative control (0% induction of caspase 3/7 activity) and wells containing ZIKV infected cells (Caspase-3 activity induced) as a positive control (100% induction of caspase 3 activity). The percentage inhibitions of the increased Caspase-3 activity by small molecule inhibitors were then calculated.
Potency means the concentration at half of the fitted maximal effect; tags describe the fitted curve by direction and shape.

Which “activity change, negative = inhibition” value does the source give for `CC(C(=O)c1ccccc1)N(C)C` (stereo not drawn) here?
Its value is inactive: -3.66%.

With `CC(=O)[O][Hg][c]1ccccc1` as the compound, how does the Potency read?
The Potency was inconclusive [inhibitor, single point].

For `CCCCC(CC)COC(=O)c1ccccc1C(=O)OCC(CC)CCCC` (stereo not drawn), which Potency is on record?
The Potency was inconclusive [inhibitor, single point].

For `O=C1CCC[C@@H]2[C@H]3CCCN4CCC[C@@H](CN12)[C@@H]34`, which Potency is on record?
The Potency was inconclusive [inhibitor, full curve, poor fit].

With `O=C(NCC1CCOCC1)c1cnc(Nc2ccc(Cl)cc2Cl)nc1C(F)(F)F` as the compound, how does the Potency read?
Its Potency is active: 8.33 µM.

With `Oc1cccc2cccnc12` as the compound, how does the Potency read?
Its Potency is “inactive”.

With `Cc1cc(SCc2sc(-c3ccc(C(F)(F)F)c(F)c3)nc2C)ccc1OCC(=O)O` as the compound, how does the Potency read?
Its Potency is inconclusive [inhibitor, single point].

Which Potency does the source give for `Nc1ccc(N=Nc2ccccc2)cc1` here?
Its Potency is inconclusive [inhibitor, partial curve, poor fit].

For `Cc1ccc([N+](=O)[O-])[c]2c1[O][Hg]2`, which Potency is on record?
Its Potency is inconclusive [inhibitor, partial curve, poor fit].

With `ClC1=C(Cl)C2(Cl)C(CBr)CC1(Cl)C2(Cl)Cl` (stereo not drawn) as the compound, how does the “activity change, negative = inhibition” value read?
The value was inactive: -23.6%.

With `COc1ccc(C(=O)N2CCCC2=O)cc1` as the compound, how does the Potency read?
The Potency was inconclusive [inhibitor, single point].

Which Potency does the source give for `O=C(Nc1ccc(Br)cc1)c1cc(Br)cc(Br)c1O` here?
The Potency was inconclusive [inhibitor, partial curve, poor fit].

For `O=C1C=CC[C@@H]2[C@H]3CCCN4CCC[C@@H](CN12)[C@@H]34`, which Potency is on record?
Its Potency is active: 3.32 µM.

With `C[C@](O)(COc1ccc(C#N)cc1)C(=O)Nc1ccc(C#N)c(C(F)(F)F)c1` as the compound, how does the “activity change, negative = inhibition” value read?
Its value is inactive: -16.9%.

Which Potency does the source give for `Cc1ccc(S(=O)(=O)N[C@@H](CCCCN)C(=O)CCl)cc1` here?
The Potency was “inactive”.

For `COc1cc(N)c(Cl)cc1C(=O)NC1CN2CCC1CC2` (stereo not drawn), which Potency is on record?
Its Potency is inconclusive [inhibitor, single point].

With `CC(O)CN1CCN(CC(=O)[O-])CCN(CC(=O)[O-])CCN(CC(=O)[O-])CC1.[Gd+3]` (stereo not drawn) as the compound, how does the Potency read?
The Potency was inconclusive [inhibitor, single point].

Which Potency does the source give for `COc1cc(OC)c(OC)cc1C=O` here?
The Potency was inconclusive [inhibitor, single point].

For `CN1CC[C@@]2(C)c3cc(OC(=O)Nc4ccccc4)ccc3N(C)[C@@H]12`, which Potency is on record?
Its Potency is inconclusive [inhibitor, partial curve, poor fit].

With `C[C@@H]1CN(C2CCC(C#N)(c3ccc(F)cc3)CC2)CC[C@]1(C(=O)O)c1ccccc1` (stereo partly drawn) as the compound, how does the “activity change, negative = inhibition” value read?
Its value is inactive: -3.39%.

For `O=c1c2ccccc2[se]n1-c1ccccc1`, which Potency is on record?
Its Potency is inconclusive [inhibitor, single point].

With `C#CCN[C@H](C)Cc1ccccc1` as the compound, how does the “activity change, negative = inhibition” value read?
Its value is inactive: -7.47%.

Which Potency does the source give for `O=C(Nc1ccccc1-c1ccc(Cl)cc1)c1cccnc1Cl` here?
Its Potency is inconclusive [inhibitor, single point].

Which “activity change, negative = inhibition” value does the source give for `CC1COC2(c3ccccc3Cl)c3cc(Cl)ccc3NC(=O)CN12` (stereo not drawn) here?
The value was inactive: 15.8%.

For `CCOP(=S)(OCC)Oc1ccc2c(C)c(Cl)c(=O)oc2c1`, which Potency is on record?
The Potency was inconclusive [inhibitor, single point].

With `COc1cccc2c1C(=O)c1c(O)c3c(c(O)c1C2=O)C[C@@](O)(C(=O)CO)CC3OC1CC(N2CCOC(OC)C2)C(O)C(C)O1` (stereo partly drawn) as the compound, how does the Potency read?
Its Potency is inconclusive [inhibitor, single point].

For `CC[n+]1c(-c2ccccc2)c2cc(N)ccc2c2ccc(N)cc21`, which Potency is on record?
Its Potency is inconclusive [inhibitor, full curve, poor fit].

For `O=[N+]([O-])c1ccc(O[C@@H]2O[C@H](CO)[C@@H](O)[C@H](O)[C@H]2F)c([N+](=O)[O-])c1`, which Potency is on record?
The Potency was inconclusive [inhibitor, single point].
